The supplement of paper PMC3334620
In all, about 33,000 sequences were measured (“E-score (-0.5 to 0.5)”: median about -0.032, highest 2% from about 0.36 on). Some of the results follow.

target: T1, Sko1 (UniProt Q02100); assay: PBM E-score (8-mer binding enrichment) (E-score (-0.5 to 0.5)); higher = stronger / more preferred TF binding; most listed sequences are background and not binding sites; conditions: protein concentration: 200 nM; construct: GST-full length
T1 sequence: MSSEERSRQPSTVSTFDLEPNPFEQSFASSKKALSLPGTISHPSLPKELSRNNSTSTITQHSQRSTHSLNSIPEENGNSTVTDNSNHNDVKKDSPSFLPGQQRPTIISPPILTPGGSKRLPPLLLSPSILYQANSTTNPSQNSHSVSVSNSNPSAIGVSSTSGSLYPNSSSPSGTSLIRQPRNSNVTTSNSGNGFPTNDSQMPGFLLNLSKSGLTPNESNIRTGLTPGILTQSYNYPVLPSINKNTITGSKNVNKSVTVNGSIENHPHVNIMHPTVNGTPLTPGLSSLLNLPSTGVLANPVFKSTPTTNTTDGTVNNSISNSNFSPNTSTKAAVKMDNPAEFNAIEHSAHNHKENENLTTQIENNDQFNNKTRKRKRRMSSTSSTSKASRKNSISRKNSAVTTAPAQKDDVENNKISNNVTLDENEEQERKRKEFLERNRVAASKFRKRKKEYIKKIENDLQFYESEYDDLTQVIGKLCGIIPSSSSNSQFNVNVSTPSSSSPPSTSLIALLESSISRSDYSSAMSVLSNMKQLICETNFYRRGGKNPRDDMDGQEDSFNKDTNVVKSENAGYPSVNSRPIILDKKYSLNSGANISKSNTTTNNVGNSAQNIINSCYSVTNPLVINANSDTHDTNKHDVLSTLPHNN
Method in brief: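 Yeast transcription factors, full-length or as DNA-binding domains, were expressed with a GST tag using PURExpress in vitro transcription/translation. At about 100-200 nM they were applied to universal all-10-mer Agilent arrays, double-stranded by primer extension on fresh or once-stripped slides. Fluorescent anti-GST detected bound protein, and masliner normalised the scans. E-scores for ungapped eight-base words, pooled with reverse complements, came from the Universal PBM Analysis Suite.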

Row | Sequence | PBM E-score
1 | GAGTACGC | 0.0719
2 | CTACCTAC | 0.121
3 | CACAGGTA | 0.113
4 | AACTACTT | -0.00602
5 | CAAGCGGG | -0.306
6 | GGGGTCAC | -0.24
7 | AGAGGAGA | -0.235
8 | CAACGAAC | 0.0301
9 | AGAAATTA | 0.271
10 | CTGCCGGC | -0.354
11 | GTGGAACA | 0.0269
12 | GAAACAGA | 0.193
13 | TACCCACA | -0.111
14 | TCTCCCCA | -0.261
15 | CAATAACC | 0.0385
16 | ATGCCGGA | -0.172
17 | GGCCGGTA | -0.0704
18 | TAAGGGTA | -0.14
19 | ACCCTTCA | -0.148
20 | CCTTATAG | 0.0597
21 | ACTAAGCC | -0.157
22 | CCATATCG | -0.0184
23 | TAGATTGA | 0.0379
24 | ATGCAATC | 0.121
25 | ATTCCAAT | 0.216

Row | Sequence | PBM E-score
26 | AAGGCGCG | -0.11
27 | CTTCTTTA | 0.0871
28 | CACACGAA | 0.229
29 | AAACCCGC | -0.11
30 | ATGGACTA | -0.0254
31 | CGTATGAA | 0.361
32 | ACCAGAAG | 0.00034
33 | ACAGACTA | -0.0343
34 | TGGTTACA | 0.123
35 | ATACCTTC | -0.139
36 | CAGGCCGC | -0.0941
37 | GTAAATTA | 0.233
38 | ACCTTCAG | 0.00033
39 | CCGGCTCA | -0.162
40 | ATGCCGAG | -0.138
41 | ACTGAGAC | -0.0815
42 | ATGGCTTC | -0.178
43 | ATTACGCC | 0.338
44 | ACGCCGAC | -0.0142
45 | AAATATCC | 0.0326
46 | CGGGTGGA | -0.198
47 | TCGGTTAA | -0.0102
48 | CTGCGAGC | -0.141
49 | AACCGAAT | 0.153
50 | ATCTGTCA | 0.0708

Row | Sequence | PBM E-score
51 | CTCGATTC | -0.0562
52 | GCAAGTAA | -0.101
53 | GTGTGGCA | -0.0855
54 | ATCTTCAG | 0.0509
55 | ATTTCCGG | -0.00931
56 | AAATTGGT | 0.00944
57 | CTGCCGGA | -0.146
58 | GCAGGCTA | -0.251
59 | ACGTGGGC | 0.347
60 | CACCTTGG | -0.025
61 | AGTCAAAA | 0.139
62 | CTTCAGGA | -0.00644
63 | CCAGCATA | -0.123
64 | ACACTTCA | -0.0431
65 | CCTGATAG | -0.213
66 | ATCGGTCC | -0.289
67 | AGAGCTCG | -0.209
68 | AGGCTTGC | -0.107
69 | GTCTCGGA | -0.0981
70 | TATGCACA | 0.0251
71 | GATATTCC | 0.0474
72 | GGCGCGTA | 0.0232
73 | CCCCCCTA | -0.315
74 | CGCATATA | 0.125
75 | TCCTAGGA | -0.406

Row | Sequence | PBM E-score
76 | TGGGATAA | -0.146
77 | ACTTTACC | 0.155
78 | ATGATTCC | 0.169
79 | GAGTCGAA | -0.166
80 | AGATCAGG | -0.144
81 | GTTCTATA | -0.0699
82 | CTTGACCC | -0.12
83 | CTTCATGC | -0.163
84 | AGCGTCAC | 0.252
85 | AATGACAT | 0.4
86 | ACCTCAAG | -0.194
87 | CATTGAAC | 0.133
88 | TAAAGTAA | 0.205
89 | AAGAGCAA | -0.189
90 | ACATCGGT | -0.183
91 | CGCTAAAA | -0.102
92 | GTGCGCAC | 0.196
93 | CCCATAGA | -0.28
94 | ACCGCCAG | -0.0518
95 | AAGTGACG | 0.445
96 | GAAAGTAA | 0.0843
97 | TCGTGACA | 0.129
98 | CCCCCGGG | -0.265
99 | AGCACGGG | -0.248
100 | CATACCTA | -0.0293

Row | Sequence | PBM E-score
101 | CAATAGAG | -0.0365
102 | ACGTGCCG | 0.243
103 | AGAAGGTC | -0.0991
104 | GGAGCAGA | -0.103
105 | ACCGAAGG | -0.107
106 | CGCGTAGA | 0.0669
107 | AGAAGTAT | 0.163
108 | GAGGTGGA | -0.268
109 | GCCGAGGA | -0.13
110 | TACTAAGA | 0.00683
111 | CGACAGAG | -0.124
112 | AAGACTGG | -0.0695
113 | CGAGTCCG | -0.112
114 | TGGAGCCA | -0.265
115 | CCTCGTCG | -0.233
116 | CAGGGGTC | -0.209
117 | AGATAGGC | -0.0324
118 | AACTCGGC | 0.121
119 | GGGTCCAC | -0.416
120 | ACTGCAGA | 0.0153
121 | CTGCGGAC | -0.184
122 | CTAGTTAA | 0.143
123 | ACCACAGC | -0.195
124 | CTGGAAAA | 0.0171
125 | CGCTAGTC | -0.288

Row | Sequence | PBM E-score
126 | GGCAGAAA | 0.0825
127 | GTCCTCAC | -0.133
128 | CTCGTCTA | 0.0478
129 | AAGTACAC | 0.148
130 | AAGCAATA | -0.188
131 | ATAGGCCC | -0.358
132 | AACGGCTA | 0.0154
133 | CGCACATA | -0.0226
134 | CCAGGCCG | -0.114
135 | AGAGAGCT | -0.304
136 | CAAAAGGA | 0.0715
137 | AGTTGGGG | -0.0449
138 | ATTCAAGA | 0.0257
139 | GACGAACA | 0.162
140 | GAAAACCA | -0.114
141 | ATCGCATA | 0.0698
142 | ATGGGATA | -0.0824
143 | ATCCAAAT | 0.187
144 | TGACTCAA | 0.122
145 | CCCTCTTC | -0.347
146 | ATTCCCAA | 0.0537
147 | GCGGGCCC | -0.168
148 | GGTCCTTA | -0.112
149 | AGATTCCG | -0.043
150 | ACTGCTCA | 0.0233

Row | Sequence | PBM E-score
151 | ACATTAAC | 0.126
152 | CTCCTTAC | -0.0643
153 | AGCGTCCT | -0.051
154 | AGTTCCGC | -0.194
155 | ACGAGGAT | 0.099
156 | GTTTTTCA | 0.134
157 | AGTTATAA | 0.147
158 | ATGTCGTG | 0.239
159 | CGCATGTA | 0.0621
160 | CGTACAAG | 0.0998
161 | CTAATTCA | 0.125
162 | ACTGTTAC | -0.0584
163 | AAGCTCGA | 0.0395
164 | CAGTGAAA | 0.163
165 | ATGTCTGA | 0.0983
166 | ACCAAGCA | -0.0559
167 | ACAGCCGG | -0.146
168 | CATATTAA | 0.174
169 | CCATTTTC | 0.163
170 | AGTTATGC | 0.0461
171 | ACAGCACC | -0.136
172 | ACCGCCTA | -0.197
